Assay results from the supplement of paper PMC11417369.
± gives the standard deviation of the averaged measurements. Some of the results follow.

test system: PfAP2-G AP2 domain (GST-tagged); experiment: gcPBM binding intensity (ln(normalized median fluorescence intensity)); higher = stronger DNA binding
Summary of the method: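 Binding intensity is the highest Masliner-normalised natural-log median intensity over replicate spots in either probe orientation. To obtain it, GST-tagged P. falciparum DNA-binding domains made in E. coli were incubated for 1 h on an Agilent 4 × 180k array of primer-extended double-stranded 36-bp intergenic genomic probes plus negative controls. Detection used Alexa488 anti-GST antibody with scanning at 488 nm.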

Sequence	gcPBM binding intensity (ln)
AAAATTAAAAAAATAAATACATTATATAATTAAAAA [CACACA_negctrl_site1426]	9.705 ± 0.035
CATTATGTCATAAATGCACACATATATATATACATA [CACACA_site8454]	10.1 ± 0.18
TATTTAAAAGTATATACACACAACTGGAATGAAAAG [CACACA_site4126]	10.5 ± 0.15
ATGCAAATAATATAAAGTACACAACATCGCCCAAAG [XGTACX_site1825]	11.3 ± 0.65
TTTTTTAAATTTTGAATTATAACTACATTAAAGAAA [GTGCAC_negctrl_site279]	9.8 ± 0.33
AACAGACATAGACACACACACATATATTTATTTATA [CACACA_site7571]	10.11 ± 0.085
ATTACATAACAATATACACACTATTGATTAAAGAGA [CACACA_site5602]	9.9 ± 0.028
TGTTGTAACAAAAGTACACACACATTTCTATAAATT [CACACA_site8894]	11.5 ± 0.98
ATAATATAAATAAAGCGTACTTAATTTTATATATAT [XGTACX_site4626]	11.2 ± 0.83
TTTATTAGATAACGATAAACGAAAAAAAAAAAATAA [GTGCAC_negctrl_site81]	9.86 ± 0.23
AGAGAAAGAAAGAAATGTACAAATACCTACACACAT [XGTACX_site3140]	10.7 ± 0.28
TCAGTTAATGTATATGTACACACGGTGAGTATATAT [CACACA_site3346]	11.2 ± 0.83
AATGGGGAAGGTTCTACACACAACGCAAATGCCTTA [CACACA_site2758]	10.2 ± 0.23
AAATTATTATGTATTTGTACACATAAGAATATAAAA [XGTACX_site6841]	11.4 ± 0.65
TATAAATAATGTTAAACACACATACCGATATATAAT [CACACA_site5499]	9.935 ± 0.007
AATCAAAAAAAATGTTGTACGCCTAATTATAATTAA [XGTACX_site8906]	11.6 ± 0.8
AATGAAATAAATAAGGGTACACATAAATATATATAT [XGTACX_site7006]	11.5 ± 1.1
AAAAAACACCCATACACACACACACCGATATATATA [CACACA_site5808]	10.1 ± 0.18
TATTCGTGCAATAATAGTACACTTATAAATTATTCA [XGTACX_site8993]	11.3 ± 0.82
TTTTTTACAAATGATATCATTTCTTTAAATATTAAA [TGCATGCA_negctrl_site279]	9.965 ± 0.035
CTATAAATGAATGTTTGTACTTAATAATAAAAGAAA [XGTACX_site3170]	11.1 ± 0.78
TATTTTTTTCATAACAGTACAATAATATATATTTTT [XGTACX_site5739]	10.6 ± 0.36

Sequence	gcPBM binding intensity (ln)
GCACACACAAAAAAAGCATGCATACTAGCTATTTTT [TGCATGCA_site18]	9.64 ± 0.18
CATTTTTTATAATAATGTACATGTATTAAAAAAAAA [XGTACX_site6390]	11.3 ± 0.88
TTTATAAGAATTACTAGTACATATAAGGAATTATAT [XGTACX_site3953]	11 ± 0.66
TTATAAATTTAAAGTAGTACTATACTACTATTTTAT [XGTACX_site3038]	11.3 ± 0.76
TATGGAATAATACGCGTACACACATATATATATTAA [CACACA_site132]	11.6 ± 0.93
ATCCACAAAATAGGATGTACATATAAAATAAATAAA [XGTACX_site5362]	11.2 ± 0.74
TTGTTTCAAGAAAAAATCGAAAAACATAGAAAAAAA [XGTACX_negctrl_site615]	10.1 ± 0.16
ATATAATATTACAAATGTACTTTAAAAAATTAGGAG [XGTACX_site3897]	11.2 ± 0.69
TTGCAATAATGTTGCACACTAAATAGTCATATATAA [CACACA_site263]	10.1 ± 0.28
ACATATAAAATATATACACACATATAAATACATTAA [CACACA_site3867]	10 ± 0.27
TATATATCAAAAATATGTACACAGAAATATATATTA [XGTACX_site6997]	11.4 ± 0.73
AAGACTAATCTAGGTAGTACTTATATATCTTTATTT [XGTACX_site4572]	11.4 ± 1.1
ATATAAGGAAGGGATGCACACAAAAGGGTACATAAG [CACACA_site9328]	11.5 ± 0.83
TTTTAGTGAAATGAGTGTACATTATATATTTTTTTT [XGTACX_site4892]	11 ± 0.32
ATTCTATATATATAAACACACAAATATTTTTATATA [CACACA_site1677]	9.875 ± 0.064
ATATTTTTGTTCAGGAGTACAGTTCAAGATGAAAAT [XGTACX_site4178]	11.6 ± 0.99
TTTTTTATATATGTGTGTGTGTGTGTGTCAAGTTTA [GTGCAC_negctrl_site460]	10.3 ± 0.29
ATAACATAATAGCAACAATTTATTTCCTCTATAACA [CACACA_negctrl_site243]	9.805 ± 0.007
TTTGGGATATTTACAGTGCAAAGATATTTTTATAAT	9.97 ± 0.19
GTGCTAGTATTTAATACACACAATTGAAGTTCCTGA [CACACA_site1452]	9.925 ± 0.049
AATAGATTTTTATGCGTGCACACATTTAACAAAAAA	10.6 ± 0.51
CTTTATCTTTTTCATTGTACTTTATTTTAAAATTAA [XGTACX_site4858]	11.5 ± 1

Sequence	gcPBM binding intensity (ln)
TGCAGTCTGGAGAAAAGTACACAGTATCTGGTAGCT [XGTACX_site2013]	11.4 ± 0.94
AATATCATAAAATAAAGTACAAATATATATTGAAAA [XGTACX_site8813]	11.1 ± 0.66
AAAAATATAAAGAAATGTACTTATAAAAATCCCTAC [XGTACX_site3824]	11 ± 0.62
TACACCAGTTGTGGGAGTACACAAAAAAAGGGAAAA [XGTACX_site6047]	11.7 ± 1
TTCTGTTCAAAATATGAACACACACCGATATATATA [CACACA_site8637]	10.1 ± 0.23
TAATTTAATTTTCCAAGAAAAAAAAAAGAAAAAAGA [CACACA_negctrl_site1703]	9.69 ± 0.042
TTCTGGTGTAAATGCACACAGAAGAAGAAAAAAAAA [CACACA_site3685]	10.1 ± 0.3
TAACATCCTAATGTCACACATGTTATAGGTTTAAAT [CACACA_site5649]	9.975 ± 0.049
AAAAAAAATAAACACACACACATACCCATAAATATA [CACACA_site5980]	10.12 ± 0.049
TTTTAAAATATATTTGTATATATATATATATATATA [XGTACX_negctrl_site536]	10.4 ± 1
ATAATATAATAATACACACTCATTATATATATAAAG [CACACA_site3956]	9.94 ± 0.028
TCCTTTCTTTTTTAAACATGCATATGTAATATAAAT [TGCATGCA_site979]	10 ± 0.26
CCTTCATCATATTTAACACACAGAGAAAAAGCGGAT [CACACA_site274]	10.1 ± 0.17
AAAAAAAAAAAAAAAAAAACCACAAACAAATATGAA [TGCATGCA_negctrl_site34]	10.8 ± 0.44
TTTACATACAAATTAACACACATATAGAAAAGAGAA [CACACA_site1889]	10.06 ± 0.014
ATATTATTTTGTCAGGGTACATTCCATAAGTTTTTT [XGTACX_site6855]	11 ± 0.5
TTTGAAATATTTATTTGTACATATACACACTTAAAT [XGTACX_site8321]	11 ± 0.57
TTTCTTTTTTTTTTTATTTACCTGAATTATGTATTA [TGCATGCA_negctrl_site345]	9.615 ± 0.007
TATTTATGTAGATACACACCCATGTTATATGGAGGT [CACACA_site3461]	10.14 ± 0.092
GCTTGTTCAAAAATGAGTACATACAAATAGTTGTAT [XGTACX_site1770]	11.5 ± 1
TTTTTTATTAGTATCTGTACACATTGGTATTTGTAT [XGTACX_site6682]	11.4 ± 0.69
AATAAATAAATATATATATATATATAATATCATAAA [CACACA_negctrl_site337]	9.62 ± 0.085

Sequence	gcPBM binding intensity (ln)
TATGCAAGGAACCACACACACACACCGAAATGTATA [CACACA_site4573]	10.3 ± 0.26
AGTTTATTTATATACACACACATATAAATATTATAG [CACACA_site6522]	10.03 ± 0.064
ATATATATTTATGTATCACACACAAAAAAAAAAAAT [CACACA_site7973]	10.1 ± 0.26
TATATATATATATATTGTACTTATGTTTATATTCAT [XGTACX_site6258]	11.1 ± 0.63
TTCTTTAAAATATTATGTACACATTGCGAACAGTTT [XGTACX_site5418]	11.7 ± 1
ACTATATAATATAATATATTATAATATATTATATTA [GTGCAC_negctrl_site140]	9.77 ± 0.15
ATAAACTGAGTGGTTACACACAAAACCAATAACTTT [CACACA_site7601]	10.28 ± 0.092
ATATAGACACACACATGTACATATGCCAACGTGATA [XGTACX_site3828]	11.2 ± 0.95
TTCTTAAAATATGAAAGTACATAGGCATTATATATT [XGTACX_site8400]	11 ± 0.72
ATGATCATAAAACACACACACAAAAAAAAAAAAAAA [CACACA_site1805]	9.71 ± 0.21
ATTAATTTTATATATGCACACAAAATATGTTCATAT [CACACA_site9350]	10.2 ± 0.25
TTATAATAAACCTATACACACATAAATAAATAAATA [CACACA_site2581]	9.945 ± 0.007
TATGTATATATTTGTGCACACCAAAGTTTGATTTTA [CACACA_site1861]	10.5 ± 0.22
AATAATATTTATTTTTGTACATATGTGCATTATAAA [XGTACX_site3682]	11 ± 0.49
TCAAGAATTATATAAACACACATACATACACCCATA [CACACA_site5126]	10.4 ± 0.42
TTATAAAAGGACTTCTGTACGAATTTTTTTTAATAA [XGTACX_site1411]	11.2 ± 0.94
GAACGAAACTTTCTTACACACATTGAAATTTTTTTC [CACACA_site1779]	9.965 ± 0.007
TACTCACAATGGGGTCTACAAAAAAAAAAAAATAAA [XGTACX_negctrl_site229]	10.4 ± 0.64
CCATGCATACATTCTTGTACACATTTCTATTATGAG [XGTACX_site39]	11.3 ± 0.79
GAATTCAACAAAAAAAGTACTCTACATAAAATAATG [XGTACX_site175]	11.4 ± 0.79
ATATTGATGTATTGTTTTTTTTTTTTCTTTTTTTTT [CACACA_negctrl_site1238]	9.81 ± 0.16
AAATACTGTAAAAAAGCATGCCACTAATAATAATTA [TGCATGCA_site759]	10
